The full ranking holds about 18,000 sequences; the median of “TetR repression strength (sort-seq, GFP reporter)” is about 0.23, and the highest 2% start at about 0.68. This is one part of the list.

Sequence of UniProt P04483 (P04483 whole entry): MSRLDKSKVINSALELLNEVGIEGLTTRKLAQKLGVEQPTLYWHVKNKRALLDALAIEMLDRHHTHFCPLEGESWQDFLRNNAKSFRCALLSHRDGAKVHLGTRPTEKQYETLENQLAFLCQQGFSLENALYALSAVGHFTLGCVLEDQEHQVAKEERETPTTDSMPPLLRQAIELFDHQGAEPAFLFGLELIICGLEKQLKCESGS

The target of this test is TetR (class B, Tn10) (UniProt P04483). Briefly: TetR repression strength (sort-seq, GFP reporter) (relative to tetO2 = 1); higher = stronger repression. The following applies: E. coli. The essentials:
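In LB with 50 µg/mL chloramphenicol, E. coli SIG10-MAX holding a low-copy library with eight randomized operator positions between a constitutive promoter and sfGFP, plus constitutive TetR, grew for 5 h at 37 °C. FACS then sorted 10^6 cells into 13 fluorescence bins for Illumina sequencing of each bin. Repression strength equals the top bin index plus one less the read-weighted mean bin, normalized to the unaltered operator. Values from three independent transformations were averaged when reads were ≥30 in every replicate and the CV was ≤0.5.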
On to TCCCTTATAGTACGAGAGA, for which the TetR repression strength worked out at 0.095.
For TCCCCGGGAGTGCTAGAGA, the TetR repression strength worked out at 0.274.
As for TCCCCTTGAGTAACGGAGA, the figure is 0.272.
As for TCCCGTCAAGTTGGCGAGA, the figure is 0.138; as for TCCCTACCAGTGATTGAGA, 0.511.
TCCCTATGAGTGGATGAGA: the TetR repression strength stood at 0.315.
Turning to TCCCTGGGAGTCGTGGAGA, the TetR repression strength came to 0.229.
As for TCCCTGGCAGTCTCAGAGA, the figure is 0.404.
As for TCCCGTCTAGTGCGTGAGA, the figure is 0.0665; as for TCCCTGTAAGTAGGCGAGA, 0.383; as for TCCCTAGAAGTTCATGAGA, 0.00391.
As for TCCCCGAGAGTGGATGAGA, the TetR repression strength was 0.136.
As for TCCCGAACAGTCAAGGAGA, the figure is 0.299; as for TCCCGTAAAGTAGGCGAGA, 0.00592.
In the case of TCCCAGGAAGTTTCGGAGA, the TetR repression strength was 0.175.
As for TCCCTGGCAGTGCTTGAGA, the figure is 0.325; as for TCCCGGTGAGTCTGAGAGA, 0.219.
In turn, TCCCCGATAGTTGCGGAGA came in with a TetR repression strength of 0.203.
Turning to TCCCGTGGAGTGTCCGAGA, the TetR repression strength was 0.821.
Turning to TCCCCCCAAGTGCCCGAGA, the TetR repression strength stood at 0.452.
Sequence TCCCGACGAGTAAGTGAGA had a TetR repression strength of 0.0202.
With TCCCGCAGAGTACTTGAGA, the TetR repression strength stood at 0.285.
As for TCCCGGTGAGTCGTGGAGA, the figure is 0.0614.
As for TCCCTGTGAGTCCGCGAGA, the figure is 0.207.
As for TCCCGTCGAGTAGGGGAGA, the figure is 0.127; as for TCCCGTAGAGTATGCGAGA, 0.214.
Consider TCCCACCCAGTCGGAGAGA, for which the TetR repression strength turned out to be 0.207.
As for TCCCGATGAGTGGTAGAGA, the figure is 0.34.
In the case of TCCCGATAAGTGGAGGAGA, the TetR repression strength stood at 0.262.
As for TCCCGCACAGTAAGGGAGA, the figure is 0.169.
As for TCCCGTAAAGTCGGGGAGA, the figure is 0.18; as for TCCCCACGAGTCCTCGAGA, 0.471; as for TCCCGCGCAGTGGGAGAGA, 0.474.
Turning to TCCCCTAGAGTGGAGGAGA, the TetR repression strength stood at 0.411.
As for TCCCGTGGAGTATCTGAGA, the figure is 0.119; as for TCCCTTGAAGTTTGCGAGA, 0.292; as for TCCCCACGAGTGGTAGAGA, 0.0708.
As for TCCCGATAAGTGACAGAGA, the figure is 0.631; as for TCCCAGAGAGTGGAGGAGA, 0.189; as for TCCCCGGAAGTCGGCGAGA, 0.242.
For the sequence TCCCGTGAAGTTGGGGAGA, the TetR repression strength was determined as 0.159.
As for TCCCCATTAGTGTTCGAGA, the figure is 0.262; as for TCCCTTCAAGTTTTGGAGA, 0.327; as for TCCCGTCCAGTGTAGGAGA, 0.0394.
The sequence TCCCGAGGAGTCAGAGAGA returned a TetR repression strength of 0.217.
In turn, TCCCCATAAGTGGACGAGA had a TetR repression strength of 0.0617.
The sequence TCCCCAGCAGTTGGTGAGA displayed a TetR repression strength of 0.35.
With TCCCGAAAAGTGTATGAGA, the TetR repression strength was found to be 0.176.
Take TCCCAGGCAGTTCGAGAGA: the TetR repression strength turned out to be 0.361.
As for TCCCTTGGAGTTCGGGAGA, the figure is 0.162; as for TCCCTCTAAGTTGATGAGA, 0.795; as for TCCCGCCAAGTGGAGGAGA, 0.229.
As for TCCCTCAGAGTCGTCGAGA, the figure is 0.248; as for TCCCGAGAAGTTGTAGAGA, 0.246.
As for TCCCCGCCAGTGAGCGAGA, the figure is 0.222; as for TCCCGCCTAGTCGGGGAGA, 0.416.
Consider TCCCCGAGAGTGGGGGAGA, for which the TetR repression strength was 0.113.
As for TCCCAAGTAGTGGCAGAGA, the figure is 0.359.
As for TCCCTATTAGTGGTGGAGA, the figure is 0.0415.
As for TCCCTGGTAGTTGGGGAGA, the figure is 0.205; as for TCCCTAGGAGTGCAAGAGA, 0.482.
TCCCTATGAGTCAAGGAGA: the TetR repression strength worked out at 0.359.
In the case of TCCCCGGGAGTACGGGAGA, the TetR repression strength is 0.135.
As for TCCCAGAAAGTGGCAGAGA, the figure is 0.535; as for TCCCGTCGAGTGTGCGAGA, 0.338.
For TCCCAGACAGTATAAGAGA, the TetR repression strength was 0.233.
In the case of TCCCACACAGTTATCGAGA, the TetR repression strength was found to be 0.244.
The sequence TCCCGTGGAGTCGAGGAGA yielded a TetR repression strength of 0.539.
As for TCCCGATCAGTCGGGGAGA, the figure is 0.213; as for TCCCACGTAGTCCCGGAGA, 0.207.
TCCCCGATAGTGGGCGAGA registered a TetR repression strength of 0.149.
As for TCCCGATTAGTTCAAGAGA, the figure is 0.438; as for TCCCGATAAGTCGGAGAGA, 0.181.
As for TCCCCCGGAGTGGCCGAGA, the figure is 0.24; as for TCCCATAAAGTAAAAGAGA, 0.365; as for TCCCAAAGAGTGCTGGAGA, 0.172.
Turning to TCCCGGACAGTACATGAGA, the TetR repression strength was 0.331.
As for TCCCCTGGAGTAAGGGAGA, the figure is 0.193.
As for TCCCGTTCAGTTCAGGAGA, the figure is 0.0302; as for TCCCGGCTAGTCGGGGAGA, 0.204.
As for TCCCGAGGAGTAGATGAGA, the figure is 0.118.
As to TCCCCGGGAGTACATGAGA, the TetR repression strength came out at 0.132.
Sequence TCCCGCTAAGTTGGGGAGA yielded a TetR repression strength of 0.155.
TCCCAGGCAGTGCCGGAGA had a TetR repression strength of 0.748.
As for TCCCTGCTAGTAGTGGAGA, the figure is 0.147; as for TCCCTGGGAGTGGCCGAGA, 0.217; as for TCCCGGGGAGTGGTTGAGA, 0.333.
As for TCCCTTACAGTCCTGGAGA, the figure is 0.471; as for TCCCCTGAAGTGCAAGAGA, 0.354.
As for TCCCGTCCAGTGCTTGAGA, the figure is 0.915.
As to TCCCTATCAGTTGAAGAGA, the TetR repression strength came out at 0.55.
As for TCCCAAAAAGTGCTCGAGA, the figure is 0.199.
As for TCCCTCATAGTGTAAGAGA, the figure is 0.205.
With TCCCCAGAAGTCGTCGAGA, the TetR repression strength was found to be 0.223.
The sequence TCCCAGTTAGTGCGAGAGA showed a TetR repression strength of 0.565.
As for TCCCACTGAGTGCGGGAGA, the figure is 0.426.
Sequence TCCCATTTAGTTTGTGAGA gave a TetR repression strength of 0.355.
On to TCCCGAGTAGTAGACGAGA, for which the TetR repression strength was determined as 0.326.
The sequence TCCCAAGCAGTCATGGAGA gave a TetR repression strength of 0.206.
Consider TCCCTGAGAGTAAAGGAGA, for which the TetR repression strength turned out to be 0.296.
As for TCCCGATTAGTATGGGAGA, the figure is 0.228; as for TCCCGAGGAGTTCGAGAGA, 0.226.

Values taken from a collection of fitness landscapes (doi:10.1038/s41467-024-54723-y).
